Source: the supplement of paper PMC10126150
Sequences with one replicate were seen in a single cluster, so their values are uncertain.

Test system: ATP
Test: switch fluorescence ratio, 500 uM ATP over buffer (Cy3 cluster intensity, sum of 5 cycles each) (fold (ratio)); higher = stronger signal-on switching upon ATP binding; sequences stand for … in TCGTCGGCAGCGTCAGATGTGTATAAGAGACAGTTTTTTTTTTTTTTTTTTTTTTTTT…TC
Details: aptamer strand: ATP DNA aptamer (quencher-CACCTGGGGGAGTATTGCGGAGGAAGG + anchor), 100 nM annealed; ATP concentration: 500 uM; one replicate
In short: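 The fluorescence ratio divides summed target-cycle Cy3 intensity by summed buffer-cycle Cy3 intensity for each cluster and is averaged per switch-domain sequence. Cy3-labelled switching-strand clusters on a modified Illumina MiSeq flow-cell were annealed to 100 nM quencher-labelled ATP aptamer, then imaged in selection buffer and again after 15 min with 500 uM ATP at 22 °C. Five such cycles were run, with NaOH stripping and re-annealing between them, and clusters outside 100-1000 RFU were excluded.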
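Note: ATP exposure 15 min at 22 °C before imaging.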

## TAAGCCACAG
  switch fluorescence ratio: 1.12

## TAAGGGACAA
  switch fluorescence ratio: 1

## TTTTACCTC
  switch fluorescence ratio: 1.02

## TTGTCTGGG
  switch fluorescence ratio: 0.985

## TAAGGCCGTC
  switch fluorescence ratio: 0.999

## GAATGCCTTC
  switch fluorescence ratio: 1.03

## GTGCACGTGT
  switch fluorescence ratio: 0.97

## CATAATTAAG
  switch fluorescence ratio: 1.02

## CCATACTGCG
  switch fluorescence ratio: 1.07

## GACTGGCAAA
  switch fluorescence ratio: 1.01

## ATTAGCCAAC
  switch fluorescence ratio: 1.05

## TTACCTCCTT
  switch fluorescence ratio: 1.1

## AGAATGGTTC
  switch fluorescence ratio: 1.01

## CTTCACCGTG
  switch fluorescence ratio: 1.09

## GAGAAGAGTT
  switch fluorescence ratio: 0.964

## GAGTGGGAAA
  switch fluorescence ratio: 1.04

## GAACTGTGGG
  switch fluorescence ratio: 1.05

## GGGGCCCAAA
  switch fluorescence ratio: 1.01

## TCTAAGCGCC
  switch fluorescence ratio: 1.02

## GGGACATATC
  switch fluorescence ratio: 1.08

## CCCGGACGTT
  switch fluorescence ratio: 0.939

## TGTACCATGT
  switch fluorescence ratio: 1.02

## TTCTGCCGAG
  switch fluorescence ratio: 1.13

## AGGTGCGATT
  switch fluorescence ratio: 1.01

## ATTCAGGACT
  switch fluorescence ratio: 0.991

## TCAGCTATAG
  switch fluorescence ratio: 1.44

## CTTGCATATG
  switch fluorescence ratio: 1.02

## ACTGTCCTAA
  switch fluorescence ratio: 1.03

## GGAGGGAATC
  switch fluorescence ratio: 1.01

## CTATACTAGG
  switch fluorescence ratio: 1

## AGTCACTGCT
  switch fluorescence ratio: 0.948

## TACTTAGCTC
  switch fluorescence ratio: 1.01

## GGTTCAGACC
  switch fluorescence ratio: 1.03

## TCCATGATTT
  switch fluorescence ratio: 1.01

## AATAGTATGT
  switch fluorescence ratio: 1.07

## CCATCAGCGG
  switch fluorescence ratio: 1.35

## CGGATTAGCC
  switch fluorescence ratio: 1.02

## CGACGCAGG
  switch fluorescence ratio: 2.67

## TTCAGTACC
  switch fluorescence ratio: 1.04

## TTAGAAACGA
  switch fluorescence ratio: 0.993

## TCTTGCACGT
  switch fluorescence ratio: 1.03

## TTAGGGCCCG
  switch fluorescence ratio: 0.996

## GGTCGAGGTG
  switch fluorescence ratio: 0.99

## CTAGTCAGAT
  switch fluorescence ratio: 1.02

## TGGAAATACC
  switch fluorescence ratio: 1.3

## ACTCGCCTAT
  switch fluorescence ratio: 1.08

## ACAGGTGTCT
  switch fluorescence ratio: 0.953

## CCCCTAGTGA
  switch fluorescence ratio: 3.72

## CGTTGGCTTA
  switch fluorescence ratio: 1.04

## ATCCTGCAGA
  switch fluorescence ratio: 1.04

## ATATCCGTGG
  switch fluorescence ratio: 1.01

## TAGAGGCACT
  switch fluorescence ratio: 1.01

## ACTTGGAATG
  switch fluorescence ratio: 1.01

## AAGTTTAGGC
  switch fluorescence ratio: 1.05

## GCGAAGAGTC
  switch fluorescence ratio: 1.01

## CGGCGGGAG
  switch fluorescence ratio: 1.01

## ACAAGTATGC
  switch fluorescence ratio: 1.08

## GGTGAACTTA
  switch fluorescence ratio: 1.01

## AAGATGTGC
  switch fluorescence ratio: 0.933

## GAAATTGCC
  switch fluorescence ratio: 0.954

## CTTACTGTGG
  switch fluorescence ratio: 1.02

## TACAATGAGA
  switch fluorescence ratio: 1.02

## GTGGGACGCC
  switch fluorescence ratio: 1

## GGCTACAGTC
  switch fluorescence ratio: 0.984

## TATCAAAGAC
  switch fluorescence ratio: 0.979

## TTGTACTCTA
  switch fluorescence ratio: 1.07

## CATAGGATGC
  switch fluorescence ratio: 1.03

## TTAGAACGCA
  switch fluorescence ratio: 1.12

## GAATTTGAAG
  switch fluorescence ratio: 0.98

## CTTTAGTAGA
  switch fluorescence ratio: 1.02

## TATGGATAAG
  switch fluorescence ratio: 1.02

## TCTGAGCGGT
  switch fluorescence ratio: 1

## GTACTGGGGC
  switch fluorescence ratio: 0.963

## GAGTCCTCAT
  switch fluorescence ratio: 1

## CGGTAGTGGC
  switch fluorescence ratio: 0.959

## TGCAGTATCG
  switch fluorescence ratio: 0.97

## CGACCCGAAC
  switch fluorescence ratio: 1.13

## TCTCGGCGG
  switch fluorescence ratio: 0.998

## CTGGGATGGA
  switch fluorescence ratio: 1.01

## TTAAACATAC
  switch fluorescence ratio: 1.3

## AGAGCCCACT
  switch fluorescence ratio: 1.01

## ATTAAGTGCT
  switch fluorescence ratio: 1.06

## TGGGTGTACG
  switch fluorescence ratio: 0.967

## CTGGCTGTAG
  switch fluorescence ratio: 1.04

## AAAATACGCA
  switch fluorescence ratio: 2.54

## GAGGCCGACT
  switch fluorescence ratio: 0.99

## GTGTATTATG
  switch fluorescence ratio: 0.99

## AACGGTACG
  switch fluorescence ratio: 0.996

## TACGCAGAGC
  switch fluorescence ratio: 1.3

## TTTAACCATT
  switch fluorescence ratio: 0.999

## AGGCATAATC
  switch fluorescence ratio: 1.11

## TTGGGACGAT
  switch fluorescence ratio: 1.05

## TTCGCGGTAT
  switch fluorescence ratio: 1.08

## ATGTCGCGGC
  switch fluorescence ratio: 0.987

## CCAGGGAAG
  switch fluorescence ratio: 1.04

## TTGGTCACGC
  switch fluorescence ratio: 0.972

## ACCAAAAAAT
  switch fluorescence ratio: 1.13

## GTGATCTAGC
  switch fluorescence ratio: 1.07

## GGTGGTCAAT
  switch fluorescence ratio: 1.01

## GAAAGAAGCT
  switch fluorescence ratio: 0.96

## CAATCCGATG
  switch fluorescence ratio: 1.04

## GTCATTCTCT
  switch fluorescence ratio: 0.974

## GAAGAAGTGC
  switch fluorescence ratio: 1.47

## GGGGGCACTG
  switch fluorescence ratio: 1.07

## AATCTGTAAC
  switch fluorescence ratio: 1.02

## GAATGTAAAA
  switch fluorescence ratio: 0.976

## TATCGTTATC
  switch fluorescence ratio: 0.989

## GGGTCGCGCG
  switch fluorescence ratio: 1.02

## TGCTAGACGG
  switch fluorescence ratio: 1.02

## TCAGTGCAAA
  switch fluorescence ratio: 1.03

## ATGTTGACAT
  switch fluorescence ratio: 1.01

## AGGCTAATGG
  switch fluorescence ratio: 1.04

## CACCTTATGC
  switch fluorescence ratio: 1.05

## ACGCTAAGGC
  switch fluorescence ratio: 1.31

## CGAACCGTCG
  switch fluorescence ratio: 1.05

## TCTTTGATCA
  switch fluorescence ratio: 1.05

## ACTGTGGTAG
  switch fluorescence ratio: 0.991

## GTTAGGCTAG
  switch fluorescence ratio: 1.01

## TGCGACCTGT
  switch fluorescence ratio: 0.996

## TCTTAAGCAG
  switch fluorescence ratio: 1.01

## GCATCTCTAC
  switch fluorescence ratio: 1.09

## ACTCGCACAG
  switch fluorescence ratio: 3.25

## TGCTGAGGGT
  switch fluorescence ratio: 1

## GTTTCGTTA
  switch fluorescence ratio: 0.992

## GCTGTGTTCA
  switch fluorescence ratio: 0.929

## AAGATTGTCA
  switch fluorescence ratio: 0.965

## CTCTGGAGGA
  switch fluorescence ratio: 1.01

## AGCCCGTATG
  switch fluorescence ratio: 1.04

## ATCCCGGCCG
  switch fluorescence ratio: 0.983

## TGTAATCCG
  switch fluorescence ratio: 1

## TCCCTGCAGC
  switch fluorescence ratio: 1.17

## ATTGGCCGCG
  switch fluorescence ratio: 0.966

## CTCTTGCATC
  switch fluorescence ratio: 1.96

## ATCCGGGGAC
  switch fluorescence ratio: 1.97

## AAGTTCTTCC
  switch fluorescence ratio: 1.85

## GGCCAGTTTT
  switch fluorescence ratio: 1.02

## AAGTCAACGA
  switch fluorescence ratio: 0.967

## GGATTATCGT
  switch fluorescence ratio: 1.03

## GCGCTAGGAA
  switch fluorescence ratio: 1

## CGAATTTGGG
  switch fluorescence ratio: 0.979

## TCGACCAGAG
  switch fluorescence ratio: 1.09

## CACTGAGGGC
  switch fluorescence ratio: 0.975

## AGGGTTGCG
  switch fluorescence ratio: 1.03

## AGATGTGTAA
  switch fluorescence ratio: 0.996

## AAGCAAATTC
  switch fluorescence ratio: 1.84

## GCTGTGATTT
  switch fluorescence ratio: 1.02

## GTGTTCCCCG
  switch fluorescence ratio: 1.1

## CGGTGTGCAA
  switch fluorescence ratio: 1.14

## AACGAGTGGT
  switch fluorescence ratio: 1.04

## AGACTCAGGG
  switch fluorescence ratio: 1

## TTTTACACAA
  switch fluorescence ratio: 1.05

## CAAGGTCGCC
  switch fluorescence ratio: 0.977

## CGTGCACGTT
  switch fluorescence ratio: 1

## ATCAGAGATG
  switch fluorescence ratio: 0.994

## AGATGTGCTC
  switch fluorescence ratio: 1.06

## GGAGCTCAAA
  switch fluorescence ratio: 1.03

## AACCACCGCT
  switch fluorescence ratio: 1.19

## CAAGAGTGCT
  switch fluorescence ratio: 0.994

## ATCGTTAGTC
  switch fluorescence ratio: 0.94

## AGTGTAGACG
  switch fluorescence ratio: 1.05

## AGCGGGCCGC
  switch fluorescence ratio: 1

## GAGAACGATG
  switch fluorescence ratio: 0.982

## ACTCTACTCG
  switch fluorescence ratio: 1.29

## CGGGACTTGA
  switch fluorescence ratio: 0.983

## ACGGGGGTCA
  switch fluorescence ratio: 0.992

## GCTAGCGCCG
  switch fluorescence ratio: 1.11

## GACGAACCAA
  switch fluorescence ratio: 2.36

## TTGCCGAGCT
  switch fluorescence ratio: 1.06

## GAAATTTTAT
  switch fluorescence ratio: 1.01

## GCAGCGCTGT
  switch fluorescence ratio: 1.01

## AAGGTCTTGA
  switch fluorescence ratio: 1.02

## TCAAGCCATA
  switch fluorescence ratio: 0.947

## AGACGAGGGA
  switch fluorescence ratio: 0.998

## ATCTGACGCA
  switch fluorescence ratio: 5.03

## GGGCTGGCCT
  switch fluorescence ratio: 1.01

## TCAGGTCATT
  switch fluorescence ratio: 0.986

## CCCGACGTCA
  switch fluorescence ratio: 1.79

## TCGGCTGGA
  switch fluorescence ratio: 1.03

## AATGTCTGTT
  switch fluorescence ratio: 0.966

## TATTTTTTAA
  switch fluorescence ratio: 0.958

## GTCAGAGATG
  switch fluorescence ratio: 1

## TCTCTACCTT
  switch fluorescence ratio: 1.15

## GGTCACTGAC
  switch fluorescence ratio: 1.02

## TGCCATTGCT
  switch fluorescence ratio: 0.99

## TGTCTGGCCT
  switch fluorescence ratio: 0.97

## CCCTTCTTCA
  switch fluorescence ratio: 1.1

## CCGAGGGACT
  switch fluorescence ratio: 1.67

## ACGGCCATTG
  switch fluorescence ratio: 1.04

## GGTTCGGTTA
  switch fluorescence ratio: 0.964

## TAGCTTTATA
  switch fluorescence ratio: 1.03

## ACGTTTGCTC
  switch fluorescence ratio: 1.04

## AGGCGTGGT
  switch fluorescence ratio: 1.04

## ACAACGGTCG
  switch fluorescence ratio: 1.02

## AAAGGGTGAC
  switch fluorescence ratio: 0.962

## AGTAACCGGT
  switch fluorescence ratio: 1.01

## TAGGAGCCGA
  switch fluorescence ratio: 1.05

## GAAATGTTAT
  switch fluorescence ratio: 0.979

## GAGTAGGCGT
  switch fluorescence ratio: 1.03

## TTATCTTAGG
  switch fluorescence ratio: 0.985

## CGAAGTACGT
  switch fluorescence ratio: 1.08
